Results: PubChem BioAssay (NCATS)
“And” between values parts separate entries of the source, which are not always exact repeats. Identical values can stand only once. Inconclusive results, whose numbers are uncertain, are shown with a selection of clear calls. Potencies of inconclusive entries are doubtful fits and often do not repeat. The source made the active and inactive calls. The call rests on the fitted dose curve; in most records, active means well fitted inhibition curve with a large enough effect; inconclusive means small, poorly fitted or top-dose-only effect; inactive means no such curve, though single readings can be large or run the other way.

Molecular target: Retinaldehyde dehydrogenase 3 (Homo sapiens) (UniProt P47895)
Assay: qHTS for Inhibitors of the Aldehyde Dehydrogenase Family (ALDH1A3) Primary screen (AID 2061315);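 on activity change, negative = inhibition: plate controls were DMSO vehicle for no effect and reference inhibitor for full effect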
Conditions: ALDH inhibition qHTS; activity change, negative = inhibition: at 56 µM (top of the series) unless noted
Potency means the concentration at half of the fitted maximal effect; tags describe the fitted curve by direction and shape.

| SMILES | Potency | activity change, negative = inhibition |
| --- | --- | --- |
| O=C(c1ccccc1O)N(Cc1cccs1)Cc1cccs1 | inactive |  |
| Cn1cc(-c2ccc3nnc(Sc4ccc5nn(C)cc5c4)n3n2)cn1 | inactive |  |
| O=C1CCc2cc(S(=O)(=O)Nc3cccc(Br)c3)ccc2N1 | inactive |  |
| CC1=CC(=O)CC(C)(C)[C@H]1/C=C/C(CO)O[C@@H]1O[C@H](CO)[C@@H](O)[C@H](O)[C@H]1O (stereo partly specified) | inactive |  |
| CC1=C2C[C@H]3OC(=O)[C@H](O)[C@@]4(O)[C@@H](C)[C@@H](O)[C@H](O)C([C@@]2(C)[C@H](O)[C@@H](O)C1)[C@@]34C (stereo partly specified) | inconclusive: 14.1 µM [inhibitor, single point] |  |
| COc1cc(O)cc(C)c1C(=O)OC1C(CO)OC(OC2C(O)C(O)C(O)C(O)C2O)C(O)C1O (stereo unspecified) | inactive |  |
| CC1(C)CC[C@]2(C(=O)O[C@@H]3O[C@H](CO)[C@@H](O)[C@H](O)[C@H]3O)CC[C@]3(C)C(=CCC4[C@@]5(C)C[C@@H](O)[C@H](O)[C@@](C)(CO)C5[C@H](O)C[C@]43C)C2C1 (stereo partly specified) | inactive |  |
| CCOc1ccc(-c2ccc(Cn3c(CC(C)(C)C(=O)O)c(SC(C)(C)C)c4cc(OCc5ccc(C)cn5)ccc43)cc2)cn1 | inconclusive: 15.8 µM [inhibitor, partial curve] |  |
| Cc1cnc(-c2ccccc2C(F)(F)F)nc1NCc1ccc(-c2cccnc2)cc1 | inconclusive: 3.55 µM [inhibitor, full curve, poor fit] |  |
| CCCn1c(-c2ccc(F)cc2)nc2c(N3CCN(CCn4ccnc4)CC3)nc(C)nc21 | inconclusive: 10 µM [inhibitor, partial curve, poor fit] |  |
| Cc1cccc(CNc2ncnc3ccc(-c4cccnc4)cc23)c1 | inactive |  |
| COc1cc(OC)cc(C2=Nn3c(nnc3-c3cccc(OC)c3)SC2)c1 | inactive |  |
| C[C@@H]1C(=O)O[C@H](C)[C@H]1C[C@@H](O)[C@](C)(O)[C@H]1CC[C@@]2(O)C3=CC(=O)[C@@H]4C[C@@H](O)[C@@H](O)C[C@]4(C)C3CC[C@]12C (stereo partly specified) | inactive |  |
| C=C1[C@@H]2[C@H]3OC(=O)C(=C)[C@@H]3CC[C@@](C)(O)[C@@H]2C[C@@H]1O[C@@H]1O[C@H](CO)[C@@H](O)[C@H](O)[C@H]1O | inactive |  |
| Cc1ccnc(NC(=S)N2CCCC(Nc3cccc(C(F)(F)F)c3)C2)c1 (stereo unspecified) | inconclusive: 3.98 µM [inhibitor, partial curve, poor fit] |  |
| CCc1ccc(NC(=O)C(=O)NNC(=O)c2cccs2)cc1 | inconclusive: 2.82 µM [inhibitor, partial curve, poor fit] |  |

| SMILES | Potency | activity change, negative = inhibition |
| --- | --- | --- |
| C/C=C(\C)C(=O)O[C@@H]1CC2[C@@H](CC=C3C[C@@H](O[C@H]4C[C@H](OC)[C@H](O[C@H]5C[C@H](OC)[C@H](O[C@H]6C[C@H](OC)[C@H](O[C@H]7C[C@@H](OC)[C@H](O[C@@H]8O[C@H](CO)[C@@H](O)[C@H](O)[C@H]8O)[C@@H](C)O7)[C@@H](C)O6)[C@@H](C)O5)[C@@H](C)O4)CC[C@@]32C)[C@@]2(O)CC[C@H](C(C)=O)[C@@]12C (stereo partly specified) |  | inactive: -14.5% [at 11.2 µM] |
| COc1cc2c(cc1O)C1(OC)Cc3ccc4c(c3C1N(C)CC2)OCO4 (stereo unspecified) | inconclusive: 2.51 µM [inhibitor, full curve, poor fit] |  |
| Cc1ccnc(NC(=S)N2CCN(c3ccc(C#N)cc3)CC2)c1 | inconclusive: 0.891 µM [inhibitor, full curve, poor fit] |  |
| CCC(=O)NC(c1cccs1)c1cc(Cl)c2cccnc2c1O (stereo unspecified) | inconclusive: 14.1 µM [inhibitor, single point] and inconclusive: 12.6 µM [inhibitor, partial curve, poor fit] |  |
| O=C(O)c1cccc(-c2noc(-c3ccc(C(F)(F)F)cc3)n2)c1 | inconclusive: 0.447 µM [inhibitor, full curve, poor fit] |  |
| C=C[C@H]1[C@H](O[C@@H]2O[C@H](CO)[C@@H](O)[C@H](OC(=O)/C=C/c3ccc(O)c(OC)c3)[C@H]2O)OC=C2C(=O)OCC[C@]21O | inconclusive: 7.94 µM [inhibitor, partial curve] |  |
| O=P(c1ccccc1)(c1ccccc1)c1cnc2ccccn12 | inactive |  |
| CC(C)(O)/C=C/C1=CC(=O)[C@@](C)(O)C[C@H]1O | inconclusive: 28.2 µM [inhibitor, partial curve, poor fit] |  |
| Cc1ccc(Nc2c(F)cccc2Cl)c(CC(=O)O)c1 | inconclusive: 39.8 µM [inhibitor, single point] |  |
| COC(=O)C1=CO[C@@H](O[C@@H]2O[C@H](CO)[C@@H](O)[C@H](O)[C@H]2O)[C@@H]2[C@@H](C)[C@@H](O)C[C@H]12 | inconclusive: 11.2 µM [inhibitor, partial curve] |  |
| C/C=C(\C)C(=O)OC1C(C)C2(O)C(C=C(CO)CC3(O)C(=O)C(C)=CC32)C2C(C)(C)C12OC(C)=O (stereo unspecified) | inconclusive: 8.91 µM [inhibitor, partial curve, poor fit] |  |
| C[C@@H]1C[C@H]2OC(=O)[C@@]3(C)CCC[C@](C)(C23)[C@@]1(O)CCC1=CC(=O)OC1O (stereo partly specified) | inconclusive: 6.31 µM [inhibitor, full curve, poor fit] |  |
| COC1C=C(C)C(O)(CO)C2(C)CCCC(C)(C)C12 (stereo unspecified) | inactive |  |
| O=C(/C=C/N1C[C@@H]2C[C@@H]1CN2c1ccccn1)c1ccccc1O | inconclusive: 39.8 µM [inhibitor, partial curve, poor fit] |  |
| Cc1ccc(NS(=O)(=O)c2ccc3[nH]c(=O)[nH]c3c2)cc1C | inactive |  |
